Laboratory results published in PubChem BioAssay AID485294 (National Center for Advancing Translational Sciences (NCATS), 2010).
The campaign covered roughly 370,000 compounds. About 150 (0.041%) were called active. The shares of active, inactive and inconclusive entries below differ from those in the screen. The call rests on the fitted dose curve; in most records, active means well fitted inhibition curve with a large enough effect; inconclusive means small, poorly fitted or top-dose-only effect; inactive means flat fitted curve, though single readings scatter. No potency is given beside an inconclusive call; the fits are too rough.

Molecular target: Beta-lactamase (Escherichia coli (strain K12)) (UniProt P00811)
Test: qHTS Inhibitors of AmpC Beta-Lactamase (assay with detergent); further: nearly all actives have a fitted effect of over 25% in size
Conditions: AmpC hydrolysis of nitrocefin, absorbance 480 nm, 0.01% Triton; series mostly up to 114 µM
Method in brief: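 20 mM phosphate pH 7.0 + 0.01% (detergent screen) or 0.0001% Triton X-100; 5.3 nM AmpC reagent; cpd preinc 15 min RT; nitrocefin (800 uM stock) to start; A480 q20 s × 4 min; Activity was normalised to no-enzyme and no-compound control wells.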
Potency means the concentration at half of the fitted maximal effect; tags describe the fitted curve by direction and shape.

Sequence of UniProt P00811 (P00811 whole entry, looked up): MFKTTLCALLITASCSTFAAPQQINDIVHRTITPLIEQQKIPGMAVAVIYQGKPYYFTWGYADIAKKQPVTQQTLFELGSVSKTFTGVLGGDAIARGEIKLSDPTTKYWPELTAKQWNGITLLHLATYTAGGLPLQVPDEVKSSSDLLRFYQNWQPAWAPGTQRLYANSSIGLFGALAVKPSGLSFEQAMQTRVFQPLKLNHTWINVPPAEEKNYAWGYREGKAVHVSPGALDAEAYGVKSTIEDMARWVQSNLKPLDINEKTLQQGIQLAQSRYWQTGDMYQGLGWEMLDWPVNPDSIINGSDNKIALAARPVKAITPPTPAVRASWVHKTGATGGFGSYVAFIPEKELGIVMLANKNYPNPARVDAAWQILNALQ

Row | Compound | Potency
1 | COc1ccc(C(C)=O)cc1COC(=O)c1ccc(OCc2c(C)noc2C)cc1 | inconclusive [inhibitor, full curve, poor fit]
2 | O=C(NC(Cc1ccc2c(c1)OCO2)C(=O)NC(Cc1ccccc1)C(=O)O)c1ccccc1 (configuration not stated) | inconclusive [inhibitor, single point]
3 | O=C(OCc1nnc(-c2ccccc2)o1)c1cn(-c2ccccc2)nc1-c1ccccc1 | inconclusive [inhibitor, full curve, poor fit]
4 | CCc1ccc(NS(=O)(=O)c2ccc3[nH]cc(C(=O)N4CCc5ccccc54)c(=O)c3c2)cc1 | inconclusive [inhibitor, full curve, poor fit]
5 | Cc1csc2ncc(C(=O)NCc3ccco3)c(=O)n12 | inactive
6 | CCOc1ccc(NC(=O)C2CCCN(S(=O)(=O)c3cnc[nH]3)C2)cc1 (configuration not stated) | inactive
7 | O=C(COc1cccc(Oc2ccccc2)c1)Nc1ccc(SC(F)F)cc1 | inconclusive [inhibitor, full curve, poor fit]
8 | COc1ccc(Cn2c(-c3ccco3)nc3oc4cc(OC)ccc4c(=O)c3c2=O)cc1 | inactive
9 | O=C(O)c1cc(-c2ccco2)[nH]n1 | inactive
10 | Cc1cccc(OCc2nnc(SCC(=O)NC3CCCCC3)n2C)c1 | inconclusive [inhibitor, partial curve, poor fit]
11 | CCn1c(CC(=O)Nc2ccccc2F)nnc1SCC(=O)NC1CCCCC1 | inconclusive [inhibitor, partial curve]
12 | COc1ccc2c(C)cc(SCC(=O)N3CCOCC3)nc2c1 | inconclusive [inhibitor, full curve, poor fit]
13 | CN1C(=O)C(Cc2cccs2)C(=O)N(C)C1=O | inconclusive [inhibitor, partial curve, poor fit]
14 | O=C(/C=C/c1ccco1)N(Cc1ccc(F)cc1)C1CCS(=O)(=O)C1 (configuration not stated) | inactive
15 | CN1CCN(c2ccccc2NC(=O)c2ccc(-c3cccc([N+](=O)[O-])c3)o2)CC1 | inactive
16 | COC(=O)[C@]1(Cc2ccccc2)N[C@H](c2ccc(-c3cc(C(C)=O)cs3)cc2)[C@@H]2C(=O)N(C)C(=O)[C@@H]21 | inconclusive [inhibitor, partial curve, poor fit]
17 | COc1cc(OC)nc(NC(=O)COC(=O)c2cccc(Cl)c2)n1 | inconclusive [inhibitor, full curve, poor fit]
18 | COc1ccc(CC(=O)Nc2ncc([N+](=O)[O-])s2)cc1OC | inactive
19 | COc1ccc(OC)c(C2C(C(=O)c3ccccc3)=C(C)Nc3nc4ccccc4n32)c1 (configuration not stated) | inconclusive [inhibitor, partial curve]
20 | COc1ccc(-c2csc(NC(=O)c3ccccc3F)n2)cc1 | inconclusive [inhibitor, full curve]
21 | COc1ccc(CN(C)CC(=O)Nc2cc3oc4ccccc4c3cc2OC)c(OC)c1 | inactive

Row | Compound | Potency
22 | C/C(CC(=O)Nc1cc(C)ccn1)=N\NC(=O)COc1cccc(C)c1 | inconclusive [inhibitor, full curve]
23 | CSc1nnc2c(n1)c(C)nn2-c1cccc(C)c1 | inconclusive [inhibitor, partial curve]
24 | CSc1sc2ccccc2[n+]1CCCS(=O)(=O)[O-] | inconclusive [inhibitor, partial curve]
25 | CN(C(=O)c1ccc2nc(N)sc2c1)c1ccccc1 | inconclusive [inhibitor, partial curve]
26 | CNC(=S)N/N=C/c1ccc(N2CCOCC2)s1 | inconclusive [inhibitor, partial curve]
27 | CN(C)CCOc1ccc2c(c1)Sc1ccccc1CC2=O | inconclusive [inhibitor, full curve]
28 | N#CCCN(Cc1cccnc1)C(=O)Nc1cccc(Cl)c1 | inconclusive [inhibitor, partial curve, poor fit]
29 | Cc1nn(-c2ccccc2)c2c1C1(C(=O)Nc3ccccc31)N1C(=N2)Sc2ccccc21 (configuration not stated) | inconclusive [inhibitor, partial curve, poor fit]
30 | CCOC(=O)Nc1ccc(C(=O)/C=C/c2ccccc2)cc1 | inactive
31 | COc1ccc2c(c1OC)C(=O)N(c1nc(SC)n[nH]1)C2=O | inconclusive [inhibitor, full curve, poor fit]
32 | CN(CCO)c1ncnc2c1sc1nc(N3CCOCC3)c3c(c12)CCC3 | inconclusive [inhibitor, single point]
33 | C=CCSc1nnc2c(n1)OC(c1ccco1)Nc1ccccc1-2 (configuration not stated) | inconclusive [inhibitor, partial curve, poor fit]
34 | COCC(C)n1c(SCC(=O)Nc2sccc2C(N)=O)nc2ccccc2c1=O (configuration not stated) | inactive
35 | Cc1c(Cl)cccc1N1CCn2c1nc1c2c(=O)n(CC(=O)O)c(=O)n1C | inactive
36 | COc1ccc(S(=O)(=O)/N=C2/NC(=O)/C(=C/c3ccco3)S2)cc1 | inactive
37 | COc1ccccc1NC(=O)c1nn(C)c2c1CS(=O)(=O)c1ccccc1-2 | inactive
38 | COc1ccc(N2C(=O)CC(N3CCC(C(N)=O)CC3)C2=O)cc1 (configuration not stated) | inconclusive [inhibitor, full curve, poor fit]
39 | Cn1c(=O)c2c(SCC(=O)N3CCOCC3)nc(C3CC3)nc2n(C)c1=O | inconclusive [inhibitor, partial curve, poor fit]
40 | CCc1ccc(C2=NN(S(C)(=O)=O)C(c3cccs3)C2)cc1 (configuration not stated) | inconclusive [inhibitor, partial curve, poor fit]
41 | CNC(=S)N(CCCN(C)C)Cc1cc2cc3c(cc2[nH]c1=O)OCCO3 | inconclusive [inhibitor, partial curve, poor fit]
42 | COc1cc(C(=O)OCC(=O)NCCC2=CCCCC2)cc(OC)c1OC | inconclusive [inhibitor, full curve, poor fit]
